From PubChem BioAssay AID1461 (National Center for Advancing Translational Sciences (NCATS), 2008)
In all, about 220,000 compounds went through this assay and about 2,300 (1%) were called active. The shares of active, inactive and inconclusive entries below differ from those in the screen. Calls come from the whole dose curve; as a rule, active = well fitted inhibition curve with a large enough effect; inconclusive = small, poorly fitted or top-dose-only effect, or effect the other way; inactive = no such curve, though single readings can be large or run the other way. Potencies of inconclusive entries are left out as doubtful fits.

Each compound was assayed against Neuropeptide S receptor (Homo sapiens) (UniProt Q6W5P4) (assay: qHTS Assay for Antagonists of the Neuropeptide S Receptor: cAMP Signal Transduction). Conditions: CHO-NPSR cells, cAMP TR-FRET, antagonist mode; series mostly up to 38.3 µM.
Note: nearly all actives have a fitted effect of over 50% in size.
Potency is the fitted concentration of half-maximal effect; tags give direction and shape of the fitted curve.

Sequence of UniProt Q6W5P4 (Q6W5P4 whole entry, looked up): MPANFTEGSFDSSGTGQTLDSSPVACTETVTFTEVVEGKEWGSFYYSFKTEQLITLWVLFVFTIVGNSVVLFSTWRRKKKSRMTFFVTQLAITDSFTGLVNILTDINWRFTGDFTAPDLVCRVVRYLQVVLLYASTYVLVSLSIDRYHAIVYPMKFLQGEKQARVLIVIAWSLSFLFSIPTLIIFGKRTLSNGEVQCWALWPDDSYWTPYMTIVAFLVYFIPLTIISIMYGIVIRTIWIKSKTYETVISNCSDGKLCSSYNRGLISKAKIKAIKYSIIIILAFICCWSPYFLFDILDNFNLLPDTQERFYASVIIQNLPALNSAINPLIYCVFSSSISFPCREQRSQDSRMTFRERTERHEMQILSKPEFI

SMILES	Potency
CCOC(=O)c1ccc(NC(=O)CN(c2ccc(C)cc2)S(=O)(=O)c2c(C)n[nH]c2C)cc1	inconclusive [inhibitor, partial curve]
CCOc1ccc(NC(=O)C(c2ccccn2)N(C(=O)CCl)c2ccc(OC)cc2)cc1 (stereo not drawn)	inactive
O=C(Nc1ccc(Cl)c(Cl)c1)c1ccc(Cn2cc(Cl)cn2)cc1	inactive
COc1cccc(/C=N/NC(=O)CSc2cccc3cccnc23)c1	inconclusive [inhibitor, single point]
COc1ccc(C2C3=C(CC(C)(C)CC3=O)Oc3ncn(CCCn4ccnc4)c(=N)c32)cc1 (stereo not drawn)	inactive
CCC(C)n1c(-c2cc(OC)c(OC)c(OC)c2)nc2nc3ccccc3nc21 (stereo not drawn)	inconclusive [inhibitor, single point]
Nc1ccc(C(=O)n2c3ccccc3c3ccccc32)cc1	inconclusive [activator, single point]
Cc1ccc(C(C(=O)NC2CCCCC2)N2CCN(C(=O)c3ccco3)CC2)cc1 (stereo not drawn)	inconclusive [inhibitor, partial curve]
CC(=O)N1CCN(c2ccc([N+](=O)[O-])cc2)CC1	inactive
COc1cccc(N2CC(O)=C(c3ccccc3)C2=N)c1	inconclusive [inhibitor, single point]
CCc1ccc(S(=O)(=O)/N=C2/C=C(Sc3ncn[nH]3)C(=O)c3ccccc32)cc1	active: 10 µM
Cc1ccc(F)c([C@H]2[C@H]3C=CC[C@@H](C)[C@@H]3C(=O)N2Cc2ccccc2)c1	inconclusive [inhibitor, single point]
CCCCCCC(=O)Nc1nc(C)c(-c2csc(Nc3ccccc3OC)n2)s1	inconclusive [inhibitor, full curve, poor fit]
Cc1c(Cl)cccc1N1C(=O)C(N2C(=O)c3cccc([N+](=O)[O-])c3C2=O)C1c1cccs1 (stereo not drawn)	inconclusive [inhibitor, single point]
C=C(C)c1cccc(C(C)(C)NC(=O)N2CCCCC2CC)c1 (stereo not drawn)	inconclusive [inhibitor, single point]
Cc1cccc(NS(=O)(=O)c2cc(C(=O)NCCC3=CCCCC3)ccc2Cl)c1	inconclusive [inhibitor, single point]
CCCC(=O)C1=C(O)C(C(=O)OC)C(C)(C)CC1=Nc1ccc(N)cc1 (stereo not drawn)	inactive
C(=C\c1nccc2c1[nH]c1ccccc12)/c1ccccc1	inconclusive [activator, partial curve]
Cc1cc(C)nc(SCc2cc(=O)c(OC(=O)c3cccc([N+](=O)[O-])c3)co2)n1	inactive
NC(=O)NC(=O)COC(=O)c1ccc(Cl)c(S(=O)(=O)N(Cc2ccccc2)c2ccc(Cl)cc2)c1	inconclusive [inhibitor, single point]
COC(=O)c1cc(NC2c3ccccc3C(=O)N2c2ccc(Cl)cn2)cc(C(=O)OC)c1 (stereo not drawn)	inconclusive [inhibitor, single point]
CC(=O)Nc1ccccc1P(=O)(c1ccccc1)c1ccccc1OC(C)=O (stereo not drawn)	inconclusive [activator, single point]
CCC1CCCCN1c1cc(C)nc2cc(-c3cccc(C)c3)nn12 (stereo not drawn)	inconclusive [inhibitor, single point]

SMILES	Potency
O=C(O)c1ccc(C=C(c2nc3ccccc3s2)c2nc3ccccc3s2)cc1	inconclusive [inhibitor, single point]
CC1(C)CC(N2CCN(C(c3ccccc3)c3ccccc3)CC2)=CC(=[N+]2CCCCC2)C1	inconclusive [inhibitor, single point]
COc1cc(/C=N/NS(=O)(=O)c2ccccc2)ccc1OS(=O)(=O)c1ccc(C)cc1	inconclusive [inhibitor, single point]
Cn1c(SCC(=O)c2ccc3c(c2)OCO3)nnc1C1COc2ccccc2O1 (stereo not drawn)	inconclusive [inhibitor, single point]
CCC1(C)Cc2c(sc3nc(NC)n(C)c(=O)c23)CO1 (stereo not drawn)	inactive
COc1ccc(N=C2S/C(=C\c3cc(C)n(C)c3C)C(=O)N2C)cc1	inconclusive [inhibitor, partial curve, poor fit]
N#C/C(=C/c1ccc(N2CCCCC2)o1)c1cccc(F)c1	active: 10 µM
CCOc1ccc(/C=N/NC(=O)COc2ccccc2-c2ccccc2)cc1	inconclusive [inhibitor, partial curve]
C=CCc1cccc(CNc2nc3ccccc3n2CC)c1O	inconclusive [inhibitor, single point]
CC12CCC(C(=O)N(Cc3ccccc3)Cc3ccccc3)(OC1=O)C2(C)C (stereo not drawn)	inconclusive [inhibitor, single point]
CCOc1cc(N2CCOCC2)c(OCC)cc1NC(=O)C(NC(=O)c1ccco1)C(C)C (stereo not drawn)	inconclusive [inhibitor, single point]
CN(C)C(=O)c1cc2cc([N+](=O)[O-])ccc2s1	inactive
S=C(NCc1ccccc1)Nc1ccc(Cl)cc1	inconclusive [activator, single point]
COc1ccc(N(C(=O)Cn2nnc3ccccc32)C2(C(=O)NC3CCCC3)CCCCC2)cc1	inconclusive [inhibitor, single point]
COc1cccc(-c2nc(NC(C)(C)C)c3ccccc3n2)c1O	inconclusive [inhibitor, single point]
COc1cccc(CN(CC2CCCO2)C(=O)c2cc3ccccc3oc2=O)c1 (stereo not drawn)	inactive
CCC(c1nnnn1Cc1ccco1)N1CCC(C(N)=O)CC1 (stereo not drawn)	inactive
COc1cc(-c2nc(S(=O)(=O)c3ccc(Cl)cc3)c(N3CCOCC3)o2)cc(OC)c1OC	inactive
CSc1nc2ccc(Nc3nc(N4CCOCC4)nc(N4CCOCC4)n3)cc2s1	inconclusive [inhibitor, single point]
Cc1ccc(N(CC(=O)Nc2cccc(C)c2)S(=O)(=O)c2cccc3nonc23)cc1	inconclusive [inhibitor, partial curve]
COC(=O)C1=C(C)NC2=C(C(=O)CCC2)C1c1cn(Cc2ccc(Cl)cc2Cl)nc1-c1ccccc1 (stereo not drawn)	inconclusive [inhibitor, single point]
CC(=O)c1sc(NC(=O)C2COc3ccccc3O2)nc1C (stereo not drawn)	inconclusive [activator, partial curve]
CC1CCCC(NC(=O)COC(=O)c2ccccc2Sc2ccccc2C#N)C1C (stereo not drawn)	inconclusive [inhibitor, single point]

SMILES	Potency
C/C(Cl)=C\Cn1c(NCCc2ccccc2)nc2c1c(=O)n(C)c(=O)n2C	inactive
CCn1c(SCC(=O)c2ccc(OC)cc2)nnc1C1CC1	inconclusive [inhibitor, single point]
Cc1ccc(S(=O)(=O)N/N=C/c2ccc(OS(=O)(=O)c3ccc(C)c([N+](=O)[O-])c3)cc2)cc1	inconclusive [inhibitor, partial curve, poor fit]
CC1CCN(c2ccc(C(=O)O)cc2N)CC1	inactive
Cn1c(=O)c2c(SCC(=O)N3CCCc4ccccc43)nc(C3CC3)nc2n(C)c1=O	inconclusive [inhibitor, single point]
COc1ccc(N(C(=O)CCl)C(C(=O)NCCc2ccccc2)c2cccs2)cc1 (stereo not drawn)	inconclusive [inhibitor, single point]
COCC(=O)NC1CCCCCC1	inconclusive [activator, single point]
CCS(=O)(=O)c1c(S(=O)(=O)CC)c2ccccn2c1C(N)=O	inactive
O=C(CN1N=C(c2ccc(Cl)cc2)CCC1=O)NCc1cccs1	inactive
COC(=O)c1cc(CN2CCN(c3ccccc3C)CC2)ccc1O	inconclusive [inhibitor, single point]
Nc1c(S(=O)(=O)c2cccs2)c2nc3ccccc3nc2n1Cc1ccccc1	inconclusive [inhibitor, partial curve]
O=C(CSc1ncnc2c(-c3ccc(Cl)cc3)nsc12)c1ccccc1	inactive
CCc1cccc2c(C(=O)COC(=O)c3c(C)noc3C)c[nH]c12	inconclusive [inhibitor, single point]
CCN1C(=O)C(Cc2nc3ccccc3c(=O)n2C)c2ccccc21 (stereo not drawn)	inconclusive [inhibitor, single point]
CN1C(=O)C2(c3ccccc31)C1CCCC=C1C(C#N)=C(N)C2(C#N)C#N (stereo not drawn)	inconclusive [inhibitor, single point]
Cc1nc(NC(=S)NC(=O)c2cccs2)sc1C(=O)N(C)C	inactive
O=C(CSc1nccc(=O)[nH]1)Nc1cccc(S(=O)(=O)N2CCOCC2)c1	inactive
Cc1cc2c(sc3c(C)ccc(C)c32)c(C)n1	inactive
CC(=O)c1sccc1NC(=O)c1ccccc1C(=O)O	inconclusive [activator, full curve]
CCOC1(C)OCC(=O)[C@]2(CCC3C4CCC5=CC(=O)C=CC5(C)C4C(=O)CC32C)O1 (stereo partly drawn)	inactive
CO/N=C/c1ccc(Oc2ccc([N+](=O)[O-])cc2[N+](=O)[O-])c(OC)c1	inactive
COc1ccc(/C=C2\CCc3ccccc3C2=O)cc1Cn1nc(C)cc1C	inconclusive [inhibitor, single point]
